Data as given in PubChem BioAssay (Tox21).
This list was built around the results that the source calls inconclusive (neither active nor inactive); the mix of calls is not that of the screen. Potencies of inconclusive entries are left out as doubtful fits. Calls of active or inactive are those of the source. The call rests on the fitted dose curve; in most records, active means well fitted cell-killing curve with a large enough effect in the repeat runs; inconclusive means weak or mixed curves, or effect the other way; inactive means flat fitted curve, though single readings scatter.

Assay: qHTS assay to identify small molecule agonists of the estrogen receptor beta (ER-beta) signaling pathway - cell viability counter screen (AID 1259380); further: nearly all actives have a fitted effect of over 30% in size
Conditions: ER-beta-bla HEK293T viability, CellTiter-Glo luminescence, 16 h; series mostly up to 92.4 µM
Procedure, shortened: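 ER-beta-UAS-bla HEK293T cells in medium with 2% charcoal-stripped FBS, pre-incubated 6 hr, then treated 16 hr at 37C. Cytotoxicity read in the same wells by CellTiter-Glo luminescence after 30 min at room temperature.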
Potency means the concentration at half of the fitted maximal effect; tags describe the fitted curve by direction and shape.

Structure (SMILES) | Potency
CS/C(C)=N/OC(=O)N(C)SN(C)C(=O)O/N=C(\C)SC | inconclusive [cytotoxic, partial curve]
C#C[C@]1(O)C=C[C@H]2[C@@H]3CCC4=CC(=O)CC[C@@H]4[C@H]3CC[C@@]21CC | inconclusive [cytotoxic, single point]
CCC(C)(CC)c1cc(NC(=O)c2c(OC)cccc2OC)on1 | inactive
CCCSP(=O)(OCC)SCCC | inconclusive [cytotoxic, single point]
CC(C)(C)C(O)/C(=C\c1ccc(Cl)cc1Cl)n1cncn1 (configuration not stated) | active: 74 µM
C[C@]12CC[C@H]3[C@@H](CC[C@@]45O[C@@H]4C(O)=C(C#N)C[C@]35C)[C@@H]1CC[C@@H]2O | inconclusive [rising, single point]
COP(=S)(OC)Oc1cc(Cl)c(Br)cc1Cl | inactive
